The other results are listed elsewhere or left out. The data describe in vitro nicking of single-stranded DNA by Rep domains (3 µM enzyme, 1 h, 37 °C); shown is the middle of each 90-letter strand. Uncut reads are compared with the no-enzyme pool on a log2 scale; uncut sequences lie near 0, cut ones below; no hit call is given. Because reads are shares of a total, they shift together, so uncut sequences can rise above 0 when many others are cut.
Experiments:
Test in all cases: uncleaved DNA left, log2 of reads against the no-enzyme library (log2 ratio); higher = less cleavage (more negative = more Rep cleavage of the k-mer); sequences stand for … in CTCGTCCG…ACCGGAGA
[1] = system: T1, Rep nickase domain of Muscovy duck circovirus
T1 sequence (residues 1-111, tag not shown): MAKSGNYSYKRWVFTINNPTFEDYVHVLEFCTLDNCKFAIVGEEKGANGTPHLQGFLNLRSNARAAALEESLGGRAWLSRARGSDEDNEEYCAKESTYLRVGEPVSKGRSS
Description: (§1)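 A pool of 90-nt single-stranded DNAs with seven random bases just before the constant AC of the nick site (name = the seven bases) was cut by 3 µM recombinant His6-SUMO-tagged Rep nickase domain (300 nM DNA, 50 mM HEPES pH 8.0, 50 mM NaCl, 1 mM MnCl2, 1 h, 37 °C, three replicates). Uncut DNA was amplified and sequenced.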

[2] = system: T2, Rep nickase domain of banana bunchy top virus
T2 sequence (residues 1-94, tag not shown): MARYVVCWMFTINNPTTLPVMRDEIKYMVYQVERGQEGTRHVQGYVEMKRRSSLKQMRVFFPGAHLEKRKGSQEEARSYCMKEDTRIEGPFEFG
Description: as §1

[3] = system: T3, Rep nickase domain of cabbage leaf curl virus
T3 sequence (residues 1-116, tag not shown): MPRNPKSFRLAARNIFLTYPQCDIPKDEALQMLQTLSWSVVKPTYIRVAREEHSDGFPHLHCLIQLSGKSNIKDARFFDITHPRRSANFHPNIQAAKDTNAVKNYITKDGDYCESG
Description: as §1

[4] = system: T4, Rep nickase domain of chickpea chlorotic dwarf virus
T4 sequence (residues 1-124, tag not shown): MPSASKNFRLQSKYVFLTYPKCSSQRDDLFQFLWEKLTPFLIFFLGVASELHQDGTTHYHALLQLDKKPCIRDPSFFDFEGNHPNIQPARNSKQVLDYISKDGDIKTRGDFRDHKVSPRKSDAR
Description: as §1

[5] = system: T5, Rep nickase domain of faba bean necrotic yellows virus
T5 sequence (residues 1-98, tag not shown): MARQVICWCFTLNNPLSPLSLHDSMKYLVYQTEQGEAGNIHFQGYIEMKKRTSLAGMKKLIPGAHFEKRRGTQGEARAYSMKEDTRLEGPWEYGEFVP
Description: as §1

[6] = system: T6, Rep nickase domain of maize striate mosaic virus
T6 sequence (residues 1-117, tag not shown): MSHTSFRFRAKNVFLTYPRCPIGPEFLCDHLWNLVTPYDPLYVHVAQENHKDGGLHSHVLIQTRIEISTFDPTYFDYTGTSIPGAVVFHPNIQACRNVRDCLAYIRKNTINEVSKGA
Description: as §1

[7] = system: T7, Rep nickase domain of porcine circovirus 2
T7 sequence (residues 2-116, tag not shown): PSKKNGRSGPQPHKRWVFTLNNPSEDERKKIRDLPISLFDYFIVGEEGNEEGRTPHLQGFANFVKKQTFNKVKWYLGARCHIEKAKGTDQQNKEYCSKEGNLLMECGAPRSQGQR
Description: as §1

[8] = system: T8, Rep nickase domain of tomato golden mosaic virus
T8 sequence (residues 1-124, tag not shown): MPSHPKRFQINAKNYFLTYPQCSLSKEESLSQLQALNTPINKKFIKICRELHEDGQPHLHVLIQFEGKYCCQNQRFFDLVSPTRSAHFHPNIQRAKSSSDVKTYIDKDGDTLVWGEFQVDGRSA
Description: as §1

[9] = system: T9, Rep nickase domain of tomato yellow leaf curl virus
T9 sequence (residues 1-136, tag not shown): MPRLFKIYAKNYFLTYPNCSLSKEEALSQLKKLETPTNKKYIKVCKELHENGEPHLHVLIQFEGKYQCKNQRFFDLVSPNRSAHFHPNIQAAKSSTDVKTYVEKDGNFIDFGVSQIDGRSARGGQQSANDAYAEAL
Description: as §1

[10] = system: T10, Rep nickase domain of wheat dwarf virus
T10 sequence (residues 1-137, tag not shown): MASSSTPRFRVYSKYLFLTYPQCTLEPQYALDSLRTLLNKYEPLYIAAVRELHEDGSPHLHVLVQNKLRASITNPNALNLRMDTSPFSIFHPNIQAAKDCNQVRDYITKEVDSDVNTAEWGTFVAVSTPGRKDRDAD
Description: as §1

Sequence	uncleaved DNA left (log2) [1]	uncleaved DNA left (log2) [2]	uncleaved DNA left (log2) [3]	uncleaved DNA left (log2) [4]	uncleaved DNA left (log2) [5]	uncleaved DNA left (log2) [6]	uncleaved DNA left (log2) [7]	uncleaved DNA left (log2) [8]	uncleaved DNA left (log2) [9]	uncleaved DNA left (log2) [10]
CAATATA	-0.326	-0.0655	-1.51	-2.74	-0.0438	-1.01	-1.38	-0.198	-0.111	-0.42
GCGCTTT	-0.109	-0.137	-0.113	-0.702	-0.105	0.0544	-0.138	-0.164	-0.0613	-0.0349
CCGGTCT	-0.117	-0.256	0.206	-0.391	-0.118	0.834	-0.0566	-0.0996	-0.172	-0.197
CAAATGA	0.038	0.078	0.00992	-0.0663	0.0608	-0.783	0.177	0.162	0.0245	0.06
GAAGCTT	-0.116	-0.0493	-0.315	-1.43	-0.133	1.09	-0.474	-0.0905	-0.153	-0.187
GCTCCCC	-0.273	-0.0108	0.188	0.382	-0.152	0.388	-0.826	-0.0653	0.0435	-0.0594
ATGTAAG	0.0872	-0.0758	-0.693	-0.192	0.024	-1.21	0.169	0.189	-0.0298	-0.0568
GTTCAGA	0.0211	0.0894	0.35	0.906	-0.08	1.74	0.212	0.139	0.0253	0.172
TGTGAGA	0.219	0.147	0.19	0.303	0.193	-0.368	0.244	0.179	0.219	0.0829
TTAAGAT	0.101	-0.186	-2.04	-2.6	-0.0542	0.887	-0.033	-0.0716	-0.11	-0.225
GTACGAC	0.0631	0.0604	0.42	0.859	0.031	1.36	0.033	0.134	0.0794	0.105
AATCTAC	0.0876	0.0276	-0.124	-1.56	0.0765	-0.267	0.00458	0.0643	-0.00357	0.0202
GAGGTAA	0.101	0.15	0.402	1.04	0.0193	1.68	0.0602	0.0176	0.0395	0.127
CGTAGAT	0.167	0.168	0.317	0.628	0.0741	0.857	0.0455	0.00771	0.0642	0.0684
CAAGATT	-0.208	-0.156	-2.38	-2.36	0.1	-0.189	-0.993	-0.383	-0.167	-0.645
